Experimental data: the supplement of paper PMC12217912
Some of the results follow. Sequences were assembled here from the parent chain. Values near 0.05 are background.

B1: TEV protease; numbered along this chain (parent)
chain: MGESLFKGPRDYNPISSSICHLTNESDGHTTSLYGIGFGPFIITNKHLFRRNNGTLVVQSLHGVFKVKDTTTLQQHLVDGRDMIIIRMPKDFPPFPQKLKFREPQREERICLVTTNFQTKSMSSMVSDTSCTFPSGDGIFWKHWIQTKDGQCGSPLVSTRDGFIVGIHSASNFTNTNNYFTSVPKNFMELLTNQEAQQWVSGWRLNADSVLWGGHKVFMVKPEEPFQPVKEATQL

Variants of: B1
Test: raw area under fraction-flipped curve 0-4 h after induction (AUC4h, not background-subtracted), DNA-recorder readout of cleavage of the substrate (dimensionless); higher = more cleavage of the substrate by the protease variant
Conditions: temperature: 34 °C; time window: 0-4 h after rhamnose induction
Description: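 In vivo DNA recorder in E. coli TOP10(DE3) ΔrhaA at 34 °C. Each TEVp single-site mutant (parent TEVp 0) is paired with a single-site variant of the 7-mer TEVs (canonical ENLYFQ|S). The substrate sits between flexible linkers in a Bxb1-sfGFP-TEVs-SsrA fusion, so cleavage stabilises Bxb1 and speeds flipping of a recombination array, read by NGS. The value is the raw area under the fraction-flipped curve over 0-4 h after rhamnose induction (AUC4h), with ≥20 reads per time point. It is not background-subtracted; inactive controls average about 0.047.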
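Also: Bxb1 expression induced with 0.2% (w/v) L-rhamnose at OD600 near 0.5, cultures sampled hourly, flipped fraction per protease–substrate barcode pair counted by paired-end Illumina sequencing.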

| Variant | area with substrate ENLYCQS | area with substrate ENLYDQS | area with substrate ENLYEQS | area with substrate ENLYGQS | area with substrate ENLYHQS | area with substrate ENLYIQS | area with substrate ENLYKQS | area with substrate ENLYMQS | area with substrate ENLYNQS | area with substrate ENLYPQS | area with substrate ENLYQQS | area with substrate ENLYRQS | area with substrate ENLYSQS | area with substrate ENLYTQS | area with substrate ENLYWQS | area with substrate ENLYYQS | area with substrate ENLYLQS | area with substrate ENLYVQS |
| --- | --- | --- | --- | --- | --- | --- | --- | --- | --- | --- | --- | --- | --- | --- | --- | --- | --- | --- |
| P228G | 0.0922 | 0.0661 | 0.0602 | 0.0737 | 0.0747 | 0.143 | 0.0594 | 0.106 | 0.0736 | 0.0664 | 0.0589 | 0.0998 | 0.0783 | 0.0069 | 0.0869 | 0.0564 |  |  |
| F6G |  | 0.0582 | 0.0617 |  | 0.055 |  | 0.021 | 0.0918 | 0.0805 |  |  |  | 0.0678 |  | 0.0798 |  | 0.0696 |  |
| P94S |  | 0.0586 | 0.0491 |  | 0.0654 |  | 0.0972 | 0.0873 | 0.0712 |  | 0.0641 | 0.0571 | 0.0728 | 0.0893 | 0.0759 |  |  |  |
| Q59P |  | 0.0317 |  | 0.0372 | 0.0457 |  | 0.058 |  | 0.0327 |  | 0.0473 |  | 0.0389 |  |  |  |  | 0.0385 |
| S17I |  | 0.0554 | 0.0592 | 0.074 | 0.0359 | 0.119 |  | 0.0561 | 0.0574 | 0.0429 |  | 0.0686 |  |  | 0.104 | 0.063 |  | 0.163 |
| S182Y | 0.102 | 0.0623 |  |  | 0.0503 | 0.0633 | 0.0681 | 0.0513 | 0.0575 |  | 0.0559 | 0.0481 | 0.0536 |  | 0.042 | 0.0395 |  |  |
| S182P | 0.104 | 0.0598 | 0.0557 | 0.0662 | 0.0719 | 0.0805 | 0.0745 | 0.0863 |  | 0.0697 | 0.0572 | 0.0551 |  |  | 0.0751 |  | 0.0861 | 0.091 |
| G54E |  | 0.0244 | 0.0479 | 0.0712 | 0.0689 | 0.0665 | 0.0514 | 0.0717 | 0.059 | 0.0308 | 0.0637 | 0.0582 | 0.0735 | 0.0311 |  |  |  | 0.0761 |
| V217I | 0.0998 |  | 0.0573 |  | 0.06 | 0.0927 | 0.0748 | 0.0804 | 0.0544 |  |  |  | 0.0807 |  | 0.0789 | 0.0673 |  | 0.0933 |
| H47Q |  | 0.0675 | 0.0656 | 0.0648 | 0.0639 |  |  | 0.0705 | 0.0552 |  |  | 0.063 |  | 0.0562 | 0.0705 |  |  |  |
| Q74Y |  | 0.0548 |  | 0.0594 | 0.0749 |  |  | 0.0515 |  | 0.0906 | 0.0549 | 0.0524 |  | 0.152 |  |  |  | 0.0818 |
| G2R |  | 0.0665 | 0.0767 |  |  |  | 0.052 |  |  | 0.0932 |  | 0.0579 | 0.096 |  |  |  |  |  |
| D82P |  | 0.0388 | 0.0799 |  |  |  |  |  | 0.0564 | 0.0488 |  |  |  | 0.0686 |  |  | 0.0472 |  |
| L61P |  | 0.0663 | 0.0668 |  | 0.0807 |  | 0.0934 | 0.0744 | 0.0206 | 0.0678 | 0.0394 | 0.0516 |  | 0.102 | 0.0756 | 0.0659 | 0.0637 |  |
| E108F |  | 0.0782 | 0.0625 | 0.0553 |  |  |  |  |  | 0.0503 |  | 0.0619 | 0.0676 |  |  | 0.069 |  |  |
| P96I |  | 0.0577 | 0.0562 |  |  | 0.104 | 0.0365 |  | 0.0582 | 0.0685 |  |  |  |  |  | 0.0584 | 0.0693 | 0.113 |
| Q75V |  | 0.0497 | 0.0596 |  | 0.0668 | 0.118 |  | 0.075 |  |  |  | 0.0665 | 0.0676 |  |  | 0.0789 |  |  |

| Variant | area with substrate ENLYCQS | area with substrate ENLYDQS | area with substrate ENLYEQS | area with substrate ENLYGQS | area with substrate ENLYHQS | area with substrate ENLYIQS | area with substrate ENLYKQS | area with substrate ENLYMQS | area with substrate ENLYNQS | area with substrate ENLYPQS | area with substrate ENLYQQS | area with substrate ENLYRQS | area with substrate ENLYSQS | area with substrate ENLYTQS | area with substrate ENLYWQS | area with substrate ENLYYQS | area with substrate ENLYLQS | area with substrate ENLYVQS |
| --- | --- | --- | --- | --- | --- | --- | --- | --- | --- | --- | --- | --- | --- | --- | --- | --- | --- | --- |
| C111P |  | 0.05 | 0.055 |  | 0.0556 | 0.061 | 0.0559 |  | 0.0506 |  | 0.0488 | 0.0585 |  |  | 0.0901 |  |  |  |
| C111G |  | 0.0338 | 0.0775 |  |  |  | 0.0495 | 0.0871 | 0.0611 |  |  |  |  |  |  | 0.0686 | 0.114 | 0.133 |
| R87C |  | 0.0639 | 0.0662 | 0.0407 | 0.0565 | 0.105 |  |  |  | 0.082 |  | 0.0698 | 0.0841 |  | 0.0959 |  |  |  |
| R87Y |  | 0.0837 | 0.0613 | 0.0638 | 0.0533 |  | 0.0545 |  | 0.0749 | 0.0631 | 0.0644 | 0.0672 | 0.0605 | 0.0949 | 0.0755 | 0.0565 |  |  |
| D27N |  | 0.0614 | 0.0774 | 0.0672 | 0.0733 | 0.137 |  | 0.0817 |  | 0.0643 | 0.0701 | 0.0599 | 0.0724 | 0.0686 | 0.0473 |  | 0.0745 | 0.0555 |
| P93T |  | 0.0743 | 0.0429 | 0.0478 | 0.0713 |  |  |  | 0.0649 | 0.0708 |  |  |  | 0.102 | 0.0799 |  |  |  |
| L73N |  | 0.063 | 0.0436 | 0.0547 | 0.0429 | 0.0669 |  | 0.043 | 0.0618 | 0.0526 |  | 0.0441 | 0.049 | 0.0673 | 0.0565 | 0.0434 |  | 0.0321 |
| Q105S |  | 0.0672 | 0.0704 | 0.0648 | 0.0834 |  | 0.0657 | 0.0803 | 0.0719 |  |  | 0.0603 |  | 0.0817 | 0.0631 | 0.0695 | 0.0967 |  |
| Q105P |  | 0.0395 | 0.0519 | 0.048 |  | 0.0399 | 0.0207 | 0.0468 | 0.0539 | 0.0454 | 0.0477 | 0.0526 |  |  | 0.0561 |  |  | 0.0514 |
| V67Y |  | 0.0629 | 0.0682 | 0.0674 |  |  | 0.0527 |  |  |  |  | 0.0626 |  | 0.0742 |  | 0.0759 |  |  |
| V67F |  | 0.0321 | 0.0632 | 0.0664 | 0.0696 |  |  | 0.0899 | 0.0774 |  |  |  | 0.0643 | 0.0728 | 0.064 | 0.0563 |  | 0.101 |
| H62L |  | 0.0575 | 0.0659 | 0.0476 |  |  | 0.0638 | 0.07 |  | 0.0803 |  |  | 0.068 |  |  |  | 0.0926 |  |
| N172G | 0.0756 |  | 0.0582 |  | 0.0672 |  |  |  | 0.0545 |  |  |  |  |  | 0.0548 | 0.061 | 0.0597 |  |
| K90P |  | 0.0726 | 0.0752 |  | 0.0698 | 0.119 |  | 0.106 | 0.0647 |  |  | 0.0674 |  |  | 0.0772 | 0.0648 |  | 0.115 |
| K90R |  | 0.0472 |  | 0.0791 | 0.0658 |  | 0.0555 | 0.104 |  |  |  |  | 0.0699 |  | 0.124 |  |  |  |
| E25F |  | 0.0365 | 0.0678 | 0.0707 | 0.0701 | 0.089 | 0.0603 |  |  | 0.0672 | 0.051 | 0.0776 | 0.0579 | 0.0715 | 0.0712 |  |  |  |
| F117C |  | 0.0477 | 0.0697 | 0.0654 | 0.0748 | 0.0418 | 0.0592 | 0.0726 | 0.0367 |  |  | 0.0505 | 0.0769 | 0.0743 | 0.0816 | 0.068 |  | 0.102 |
